The text below walks through data of paper PMC13083723 (Patterns, 2026).

Hit rate of the full screen: of about 5,400 compounds, about 190 (3.5%) showed an effect of 50% or more. The list shows a part of the results. Positions of bridges follow the written chain, without caps; N, C: chain ends. Non-standard residues stand in square brackets, D forms with d. Residues, ends and D or L forms follow the SMILES beside them. ξ: configuration not given here. ξThr(3R) = C[C@@H](O)C(N)C(=O)O

In this test the test system is Vero-E6. In words: primary screen, phospholipidosis by LipidTOX staining; higher = more effect of the substance. To be noted: 10 µM. In outline:
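Single-concentration screen at 10 μM, with DMSO 0.1 v/v % and amiodarone 10 μM as controls. Read-out is LipidTOX Red phospholipid staining, which tolerates aldehyde fixation, in Vero-E6 cells.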
Turning to `NC(N)=NCCC[C@@H](N)C(=O)N[C@@H](CCCN=C(N)N)C(=O)N1CCC[C@H]1C(=O)N1C[C@H](O)C[C@H]1C(=O)NCC(=O)N[C@@H](Cc1cccs1)C(=O)N[C@@H](CO)C(=O)N1Cc2ccccc2C[C@@H]1C(=O)N1[C@H](C(=O)N[C@@H](CCCN=C(N)N)C(=O)O)C[C@@H]2CCCC[C@@H]21`, the result_ITMP was -1.28%.

`CC(C)Oc1cccc(-n2c(CCc3c[nH]c4ccc(Br)cc34)nc3ccccc3c2=O)c1`: the result_ITMP is listed as -2.01%.

For `CC(C)(C)NCC(O)c1ccc(O)cc1Cl` (centres unmarked), the result_ITMP is -2.23%.

Consider `CC[C@@]1(O)C(=O)OCc2c1cc1n(c2=O)Cc2cc3cc(O)ccc3nc2-1`, for which the result_ITMP amounted to 2.87%.

With `C=CCc1cc(OC)c(O)c(C(=O)NCCO)c1`, the result_ITMP is reported as -1.23%.

For `COc1ccc(C(=O)N2CCN(c3ccc4c(c3)CCC(=O)N4)CC2)cc1OC`, the result_ITMP is recorded as 1.75%.

For `CN(C)CCNc1nc2cc(O)ccc2c2c1C(=O)c1ccccc1-2`, the result_ITMP is reported as 76.7%.

Take `C#C[C@]1(O)CC[C@H]2[C@@H]3CCC4=CC(=O)CC[C@@H]4[C@H]3CC[C@@]21C`: the result_ITMP was -5.93%.

`C=C[C@H]1C[N@]2CC[C@H]1C[C@H]2[C@H](O)c1ccnc2ccccc12`: the result_ITMP worked out at 2.46%.

In the case of `O=C(O)CNC(=O)c1ccccc1`, the result_ITMP was -2.08%.

In the case of `COc1ccc2c(c1)/C(=C/c1cnc[nH]1)C(=O)N2`, the result_ITMP was -0.89%.

On to `CC(=O)N1CCN(c2ccc(OCC3CO[C@](Cn4ccnc4)(c4ccc(Cl)cc4Cl)O3)cc2)CC1` (some centres unmarked), for which the result_ITMP is given as -2.23%.

`Cc1ccc([N+](=O)[O-])cc1O`: the result_ITMP is recorded as -3.44%.

As for `C#C[C@]1(OC(C)=O)CC[C@H]2[C@@H]3CCC4=C[C@@H](OC(C)=O)CC[C@@H]4[C@H]3CC[C@@]21C`, the result_ITMP is recorded as 8.26%.

In the case of `CC(C)[C@H](C(=O)Nc1ccc(C(=O)NO)cc1)c1ccccc1`, the result_ITMP was -6.12%.

In the case of `N[C@H]1CCN(O)C1=O`, the result_ITMP was -8.51%.

`Cc1cc(C)cc(C(=O)OC2CC3CCC(C2)N3C)c1` (centres unmarked): the result_ITMP worked out at 32.8%.

As for `COc1ccc([C@@H]2CNC(=O)C2)cc1OC1CCCC1`, the result_ITMP was -0.04%.

Regarding `COc1ccc(C[C@H]2NC[C@H](O)[C@H]2OC(C)=O)cc1`, the result_ITMP is -2.85%.

For the molecule `Nc1ccc(S(=O)(=O)Nc2ncccn2)cc1`, the result_ITMP is -3.05%.

For `Cc1c(C)c2c(c(C)c1O)CCC(C)(C)O2`, the result_ITMP is given as -2.28%.

As for `CCCC(C)NC(=O)c1ccc(Cl)c(Cl)c1` (centres unmarked), the result_ITMP is given as -0.37%.

Regarding `O=C(O)c1ccc(N[C@H]2O[C@H](CO)[C@@H](O)[C@H](O)[C@@H]2O)cc1`, the result_ITMP is reported as -5.7%.

Take `Clc1ccccc1CN1CCc2sccc2C1`: the result_ITMP is on record as 5.84%.

As to `O=C(O)/C=C(/CC(=O)O)C(=O)O`, the result_ITMP was -1.87%.

For `CCC(=O)O[C@H](CC(=O)O)C[N+](C)(C)C`, the result_ITMP is -1.2%.

For the molecule `COc1cc(Br)c(S(=O)(=O)Nc2ccc(Cl)c(O[C@@H]3CCN(C)C3)c2)cc1OC`, the result_ITMP is reported as 0.95%.

Consider `CCN(CC)CCOC(=O)C1(c2ccc([N+](=O)[O-])cc2)CCCC1`, for which the result_ITMP amounted to 9.04%.

Turning to `Ic1cc(-c2ccccc2)ncn1`, the result_ITMP is -2.32%.

For the molecule `Nc1ccc(O)c(C(=O)O)c1`, the result_ITMP is listed as -0.32%.

`N[C@@H]1[C@H]2CN(c3nc4c(cc3F)c(=O)c(C(=O)O)cn4-c3ccc(F)cc3F)C[C@@H]12`: the result_ITMP amounted to 0.39%.

Turning to `O=C(Nc1c(-c2cccs2)nc2ccccn12)c1ccc(Cl)cc1`, the result_ITMP is listed as -0.29%.

Consider `NCC1CC(=O)N(Cc2ccccc2)C1` (centres unmarked), for which the result_ITMP is recorded as -5.56%.

`CC(=O)N[C@@H](CC(=O)O)C(=O)N[C@@H](CCC(=O)O)C(=O)O` (Ac-Asp-Glu-OH): the result_ITMP is listed as -0.28%.

On to `Cc1cc(C(C)(C)CC(C)(C)C)ccc1OCCOCC[N+](C)(C)Cc1ccccc1`, for which the result_ITMP is -6.14%.

For `Cc1cc(NC(=O)C2=C(O)c3ccccc3S(=O)(=O)N2C)no1`, the result_ITMP came to 1.26%.

For the molecule `Nc1nccc(-c2c(-c3ccc(F)cc3)ncn2C2CCCCC2)n1`, the result_ITMP is -1.28%.

On to `O=C1c2ccccc2C(=O)c2ccccc21`, for which the result_ITMP is given as -4.71%.

With `c1cc(-c2sc(-c3ccncc3)c(-c3ccncc3)c2-c2ccncc2)ccn1`, the result_ITMP is given as -1.74%.

Take `O=C(Nc1cc(-c2ccccc2)nn1-c1ccccc1)c1ccc([N+](=O)[O-])cc1`: the result_ITMP is 1.13%.

`CO[C@@H]1[C@@H](O[C@@H]2O[C@H](C)[C@@H](O[C@H]3C[C@@](C)(O)[C@H](O)[C@H](C)O3)[C@H](N(C)C)[C@H]2O)[C@@H](CC=O)C[C@@H](C)[C@@H](O[C@H]2CC[C@H](N(C)C)[C@@H](C)O2)/C=C/C=C/C[C@H](C)OC(=O)C[C@H]1O`: the result_ITMP is -7.34%.

For the molecule `CO[C@@]1(NC(=O)C2SC(=C(C(N)=O)C(=O)O)S2)C(=O)N2C(C(=O)O)=C(CSc3nnnn3C)CS[C@@H]21` (some centres unmarked), the result_ITMP is listed as -3.07%.

Regarding `CN(C)CCCN1c2ccccc2CCc2ccc(Cl)cc21`, the result_ITMP is given as 47.3%.

For `COC(=O)N1CCN(Cc2cccc(NC(=O)Nc3ccc(C)nc3)c2F)CC1`, the result_ITMP was -1.16%.

For the molecule `O=C1CCC(c2ccccc2)(C2CCN(Cc3ccc(I)cc3)CC2)C(=O)N1` (centres unmarked), the result_ITMP is on record as 30.2%.

In the case of `COCCN(C(=O)c1cc(OC)c(OC)c(OC)c1)c1nc(-c2ccccc2)cs1`, the result_ITMP is -0.65%.

Regarding `CCCCCCCCCCCCCCCCCCOC[C@H](COP(=O)([O-])OCC[N+](C)(C)C)OC`, the result_ITMP stood at 7.43%.

For the molecule `COC(=O)C1=C(C)NC(C)=C(C(=O)OC)C1c1ccccc1[N+](=O)[O-]`, the result_ITMP is listed as -3.4%.

Take `CCCCCCCC(=O)N[C@H](CN1CCCC1)[C@H](O)c1ccc2c(c1)OCCO2`: the result_ITMP is 51.9%.

On to `C[C@@H]1NC(=O)[C@@H]2CCCN2C(=O)[C@H](CC(N)=O)NC(=O)[C@@H]2CSSC[C@H](N)C(=O)N[C@H]3CSSC[C@H](NC1=O)C(=O)NC([C@@H](C)O)C(=O)NCC(=O)N[C@H](C(=O)N[C@@H](Cc1ccc(O)cc1)C(=O)O)CSSC[C@H](NC(=O)[C@H](Cc1ccc(O)cc1)NC(=O)[C@H](CCC(=O)O)NC3=O)C(=O)N2` (stereo partly drawn) (H-CCEYCCNPAC[ξThr(3R)]GCY-OH; disulfide 1-6, 2-10, 5-13), for which the result_ITMP is given as -6.32%.

On to `CN(C)c1nc(N)c(C(=O)Nc2cccnc2)nc1Cl`, for which the result_ITMP was -1.56%.

In the case of `N#Cc1ccc(NCCNCC(=O)N2CCC[C@H]2C#N)nc1`, the result_ITMP is -4.45%.

On to `COc1cc(N2CCN(C)CC2)ccc1Nc1nccc(-c2cn(C)c3cnccc23)n1`, for which the result_ITMP is listed as 12.4%.

Turning to `COc1cc2c(cc1O)CC[C@@H]1[C@@H]2CC[C@]2(C)[C@@H](O)CC[C@@H]12`, the result_ITMP is given as 3.54%.

On to `NC(=O)c1ncn([C@@H]2O[C@H](CO)[C@@H](O)[C@H]2O)c1N`, for which the result_ITMP was -3.54%.

With `CC1=C(/C=C/C(C)=C/C=C/C(C)=C/C(=O)Nc2ccc(O)cc2)C(C)(C)CCC1`, the result_ITMP is listed as -0.7%.

Regarding `CCC(=O)O[C@H]1[C@H](O[C@@H]2[C@@H](C)[C@H](O[C@H]3C[C@@](C)(OC)[C@@H](O)[C@H](C)O3)[C@@H](C)C(=O)O[C@H](CC)[C@@](C)(O)[C@H](O)[C@@H](C)C(=O)[C@H](C)C[C@@]2(C)O)O[C@H](C)C[C@@H]1N(C)C`, the result_ITMP is listed as -2.03%.

`Cc1ccc(Cl)c(OCC(O)CNC(C)(C)C)c1` (centres unmarked): the result_ITMP was determined as 35.5%.

On to `Cc1ccc(F)cc1C(=O)Nc1ccc(C(=O)N2Cc3cccn3Cc3ccccc32)c(Cl)c1`, for which the result_ITMP is recorded as 9.56%.

Take `NC(=O)c1ccc(-c2nc(-c3ccc4c(c3)OCO4)c(-c3ccccn3)[nH]2)cc1`: the result_ITMP turned out to be 0.7%.

For the molecule `COc1ccc(CC2NCCc3c2[nH]c2ccc(C)cc32)c(Cl)c1OC` (centres unmarked), the result_ITMP is 42.7%.

Take `C[N+]12CCC(CC1)C(OC(=O)C(O)(c1ccccc1)c1ccccc1)C2` (centres unmarked): the result_ITMP is -3.37%.

On to `C/C(=N\NC(=O)[C@@H]1C(=O)NC[C@H]1c1ccccc1)c1cccc(Br)c1`, for which the result_ITMP came to 6.04%.

Regarding `O=C(O)c1cc(O)c2c(c1)[C@H]([C@H]1c3cc(C(=O)O)cc(O)c3C(=O)c3c(O[C@@H]4O[C@H](CO)[C@@H](O)[C@H](O)[C@H]4O)cccc31)c1cccc(O[C@@H]3O[C@H](CO)[C@@H](O)[C@H](O)[C@H]3O)c1C2=O`, the result_ITMP is 0.26%.

With `CC(=O)[C@H]1CC[C@H]2[C@@H]3CC[C@@H]4C[C@H](O)CC[C@]4(C)[C@H]3CC[C@]12C`, the result_ITMP is listed as -1.08%.

As to `C[C@@H]1OC(O)[C@H](O)[C@H](O)[C@H]1O` (some centres unmarked), the result_ITMP is listed as -1.39%.

For the molecule `CC(=O)Oc1cc(C(C)C)c(OCCN(C)C)cc1C`, the result_ITMP is given as 2.56%.

As for `CCOc1c(N2CCOCC2)cnn(C)c1=O`, the result_ITMP is -3.66%.

Take `CC(c1cc2ccccc2s1)N(O)C(N)=O` (centres unmarked): the result_ITMP is given as 3.44%.

As to `CC1=C(C(=O)OC2CCCCC2)C(c2ccc([N+](=O)[O-])cc2)C2=C(CC(C)(C)CC2=O)N1` (centres unmarked), the result_ITMP was determined as 4.04%.

`C[C@@H]1C(=O)O[C@H]2C[C@@]34[C@H]5C[C@@H](C(C)(C)C)[C@]36[C@@H](OC(=O)[C@@H]6O)O[C@@]4(C(=O)O5)[C@]21O`: the result_ITMP was -6.46%.

As to `CC[N+](C)(CC)CC(=O)Nc1c(C)cccc1C`, the result_ITMP was -1.87%.

For `O=C(O)C(Cc1ccccc1[N+](=O)[O-])=NNc1nc(-c2ccc(Cl)c(Cl)c2)cs1` (mixture of isomers), the result_ITMP was -7.04%.

Turning to `C[C@H](N)C(=O)NCC(=O)N[C@H]1CSSC[C@@H](C(=O)O)NC(=O)[C@H](CO)NC(=O)[C@H]([C@@H](C)O)NC(=O)[C@H](Cc2ccccc2)NC(=O)[C@H]([C@@H](C)O)NC(=O)[C@H](CCCCN)NC(=O)[C@H](Cc2c[nH]c3ccccc23)NC(=O)[C@H](Cc2ccccc2)NC(=O)[C@H](Cc2ccccc2)NC(=O)[C@H](CC(N)=O)NC(=O)[C@H](CCCCN)NC1=O`, the result_ITMP came to 0.28%.

Consider `OB1OCc2cc(Cl)ccc21`, for which the result_ITMP turned out to be 1.41%.

In the case of `C[N+]1(C)C2CC(OC(=O)[C@@H](CO)c3ccccc3)CC1C1OC12` (some centres unmarked), the result_ITMP was -2.43%.

Turning to `C[n+]1cccc(C(=O)[O-])c1`, the result_ITMP is reported as -3.38%.
